# From the supplement of paper PMC8728848
# Some of the results follow.
# B1: AT5G01260(PC)(40) (Arabidopsis thaliana), Q9LFB0 (protein)
# chain: MIGIGRTLTSSSPSKIILEDLPPGIYRYGTEIFTSVPRKTFHHIKFLRLDSAQSSRILKPVPLRSSSIKDSQVNVEDEEIEASNKTVRVRFQLRKECVFGEHFFIVGDDPVFGGLWDPETALPLNWSDGNVWTVDLDLPVGRLVEFKLLLKAQTGEILWQPGPNRALETWETNKTIRICEDWDNADLQMMIEEDFVPYTNISSIGSEDEDEVLGSVQQNSSVVAVENAGYVSDESAQNSSFSIQSEKTMEPSNGALTAREVIKEAMFTEEESPVLVPGLIPLSDLDNEQVEVINEGKAETFPEVDKKQEPKAERNKKAKVKAISLFEKSEQEAVKSVEQRQYNAVEEEQQRLETEPLGTPDVLFENDIQWGRRTLYKLLSNFRLF
# Experiments:
# Assay in all cases: glycan array binding signal (z-score within array); higher = stronger binding
# Conditions in all cases: glycan notation: IUPAC condensed, linker removed
# [1] = biological target: Man(a1-2)Man(a1-3)[Man(a1-2)Man(a1-6)]Man
# Method in brief: (§1)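 The Consortium for Functional Glycomics database supplied 3228 glycan arrays, of which those lacking an available protein sequence were dropped. The binding signal, a within-array Z-score, was averaged across arrays of the same protein sequence and across linkers. Negative scores can be read as non-binding.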
# [2] = biological target: Man(a1-2)Man(a1-3)[Man(a1-2)Man(a1-6)]Man(a1-6)[Man(a1-2)Man(a1-2)Man(a1-3)]Man
# Method in brief: as §1
# [3] = biological target: Man(a1-2)Man(a1-3)[Man(a1-2)Man(a1-6)]Man(a1-6)[Man(a1-2)Man(a1-2)Man(a1-3)]Man(b1-4)GlcNAc(b1-4)GlcNAc
# Method in brief: as §1
# [4] = biological target: Man(a1-2)Man(a1-3)[Man(a1-6)]Man(a1-6)[Man(a1-2)Man(a1-3)]Man(b1-4)GlcNAc(b1-4)GlcNAc
# Method in brief: as §1
# [5] = biological target: Man(a1-2)Man(a1-6)[Man(a1-3)]Man(a1-6)[Man(a1-2)Man(a1-2)Man(a1-3)]Man
# Method in brief: as §1
# [6] = biological target: Man(a1-2)Man(a1-6)[Man(a1-3)]Man(a1-6)[Man(a1-2)Man(a1-2)Man(a1-3)]Man(b1-4)GlcNAc(b1-4)GlcNAc
# Method in brief: as §1
# [7] = biological target: Man(a1-3)[Man(a1-6)]Man
# Method in brief: as §1
# [8] = biological target: Man(a1-3)[Man(a1-6)]Man(a1-6)[Man(a1-2)Man(a1-3)]Man(b1-4)GlcNAc(b1-4)GlcNAc
# Method in brief: as §1
# [9] = biological target: Man(a1-3)[Man(a1-6)]Man(a1-6)[Man(a1-3)]Man
# Method in brief: as §1
# [10] = biological target: Man(a1-3)[Man(a1-6)]Man(a1-6)[Man(a1-3)]Man(b1-4)GlcNAc(b1-4)GlcNAc
# Method in brief: as §1
# [11] = biological target: Man(a1-3)[Man(a1-6)]Man(b1-4)GlcNAc(b1-4)GlcNAc
# Method in brief: as §1
# [12] = biological target: Man(a1-3)[Man(a1-6)]Man(b1-4)GlcNAc(b1-4)[Fuc(a1-6)]GlcNAc
# Method in brief: as §1
# [13] = biological target: Man(a1-6)Man
# Method in brief: as §1
# [14] = biological target: Man(b1-4)GlcNAc
# Method in brief: as §1
# [15] = biological target: MurNAc(b1-4)GlcNAc
# Method in brief: as §1
# [16] = biological target: Neu5Ac(a2-3)Gal
# Method in brief: as §1
# [17] = biological target: Neu5Ac(a2-3)Gal(b1-3)GalNAc
# Method in brief: as §1
# [18] = biological target: Neu5Ac(a2-3)Gal(b1-3)GalNAc(b1-3)Gal(a1-4)Gal(b1-4)Glc
# Method in brief: as §1
# [19] = biological target: Neu5Ac(a2-3)Gal(b1-3)GalNAc(b1-4)[Neu5Ac(a2-3)]Gal(b1-4)Glc
# Method in brief: as §1
# [20] = biological target: Neu5Ac(a2-3)Gal(b1-3)GalNAc(b1-4)[Neu5Ac(a2-8)Neu5Ac(a2-3)]Gal(b1-4)Glc
# Method in brief: as §1
# [21] = biological target: Neu5Ac(a2-3)Gal(b1-3)GalNAc6S
# Method in brief: as §1
# [22] = biological target: Neu5Ac(a2-3)Gal(b1-3)GlcNAc
# Method in brief: as §1
# [23] = biological target: Neu5Ac(a2-3)Gal(b1-3)GlcNAc(b1-2)Man
# Method in brief: as §1
# [24] = biological target: Neu5Ac(a2-3)Gal(b1-3)GlcNAc(b1-2)Man(a1-3)[GlcNAc(b1-4)][Neu5Ac(a2-3)Gal(b1-3)GlcNAc(b1-2)Man(a1-6)]Man(b1-4)GlcNAc(b1-4)GlcNAc
# Method in brief: as §1
# [25] = biological target: Neu5Ac(a2-3)Gal(b1-3)GlcNAc(b1-2)Man(a1-3)[Neu5Ac(a2-3)Gal(b1-3)GlcNAc(b1-2)Man(a1-6)]Man(b1-4)GlcNAc(b1-4)GlcNAc
# Method in brief: as §1
# [26] = biological target: Neu5Ac(a2-3)Gal(b1-3)GlcNAc(b1-3)Gal(b1-3)GlcNAc
# Method in brief: as §1
# [27] = biological target: Neu5Ac(a2-3)Gal(b1-3)GlcNAc(b1-3)Gal(b1-4)GlcNAc
# Method in brief: as §1
# [28] = biological target: Neu5Ac(a2-3)Gal(b1-3)GlcNAc(b1-3)GalNAc
# Method in brief: as §1
# [29] = biological target: Neu5Ac(a2-3)Gal(b1-3)GlcNAc(b1-4)Gal(b1-4)Glc
# Method in brief: as §1
# [30] = biological target: Neu5Ac(a2-3)Gal(b1-3)GlcNAc(b1-6)GalNAc
# Method in brief: as §1
# [31] = biological target: Neu5Ac(a2-3)Gal(b1-3)GlcNAc6S
# Method in brief: as §1
# [32] = biological target: Neu5Ac(a2-3)Gal(b1-3)[Fuc(a1-4)]GlcNAc
# Method in brief: as §1
# [33] = biological target: Neu5Ac(a2-3)Gal(b1-3)[Fuc(a1-4)]GlcNAc(b1-3)Gal(b1-3)[Fuc(a1-4)]GlcNAc
# Method in brief: as §1
# [34] = biological target: Neu5Ac(a2-3)Gal(b1-3)[Fuc(a1-4)]GlcNAc(b1-3)Gal(b1-4)[Fuc(a1-3)]GlcNAc
# Method in brief: as §1
# [35] = biological target: Neu5Ac(a2-3)Gal(b1-3)[GlcNAc(b1-6)]GalNAc
# Method in brief: as §1
# [36] = biological target: Neu5Ac(a2-3)Gal(b1-3)[Neu5Ac(a2-6)]GalNAc
# Method in brief: as §1
# [37] = biological target: Neu5Ac(a2-3)Gal(b1-3)[Neu5Ac(a2-6)]GlcNAc(b1-3)[Fuc(a1-3)[Gal(b1-4)]GlcNAc(b1-6)]Gal(b1-4)Glc
# Method in brief: as §1
# [38] = biological target: Neu5Ac(a2-3)Gal(b1-3)]Neu5Ac(a2-3)Gal(b1-4)]GlcNAc
# Method in brief: as §1
# [39] = biological target: Neu5Ac(a2-3)Gal(b1-4)Glc
# Method in brief: as §1
# [40] = biological target: Neu5Ac(a2-3)Gal(b1-4)GlcNAc
# Method in brief: as §1
# [41] = biological target: Neu5Ac(a2-3)Gal(b1-4)GlcNAc(b1-2)Man
# Method in brief: as §1
# [42] = biological target: Neu5Ac(a2-3)Gal(b1-4)GlcNAc(b1-2)Man(a1-3)[GlcNAc(b1-4)][Neu5Ac(a2-3)Gal(b1-4)GlcNAc(b1-2)Man(a1-6)]Man(b1-4)GlcNAc(b1-4)GlcNAc
# Method in brief: as §1
# [43] = biological target: Neu5Ac(a2-3)Gal(b1-4)GlcNAc(b1-2)Man(a1-3)[Neu5Ac(a2-3)Gal(b1-4)GlcNAc(b1-2)Man(a1-6)]Man(b1-4)GlcNAc(b1-4)GlcNAc
# Method in brief: as §1
# [44] = biological target: Neu5Ac(a2-3)Gal(b1-4)GlcNAc(b1-2)Man(a1-3)[Neu5Ac(a2-3)Gal(b1-4)GlcNAc(b1-2)Man(a1-6)]Man(b1-4)GlcNAc(b1-4)[Fuc(a1-6)]GlcNAc
# Method in brief: as §1
# [45] = biological target: Neu5Ac(a2-3)Gal(b1-4)GlcNAc(b1-2)Man(a1-3)[Neu5Ac(a2-6)Gal(b1-4)GlcNAc(b1-2)Man(a1-6)]Man(b1-4)GlcNAc(b1-4)GlcNAc
# Method in brief: as §1
binder,measurement,setting,value
B1,glycan array binding signal (z-score),[1],-0.656
same,glycan array binding signal (z-score),[2],0.413
same,glycan array binding signal (z-score),[3],-0.508
same,glycan array binding signal (z-score),[4],0.449
same,glycan array binding signal (z-score),[5],-0.458
same,glycan array binding signal (z-score),[6],-0.074
same,glycan array binding signal (z-score),[7],-0.097
same,glycan array binding signal (z-score),[8],-0.599
same,glycan array binding signal (z-score),[9],-0.108
same,glycan array binding signal (z-score),[10],0.05
same,glycan array binding signal (z-score),[11],0.055
same,glycan array binding signal (z-score),[12],0.3
same,glycan array binding signal (z-score),[13],1.03
same,glycan array binding signal (z-score),[14],0.028
same,glycan array binding signal (z-score),[15],-0.149
same,glycan array binding signal (z-score),[16],-0.106
same,glycan array binding signal (z-score),[17],0.097
same,glycan array binding signal (z-score),[18],0.127
same,glycan array binding signal (z-score),[19],-0.208
same,glycan array binding signal (z-score),[20],-0.847
same,glycan array binding signal (z-score),[21],-0.292
same,glycan array binding signal (z-score),[22],-0.315
same,glycan array binding signal (z-score),[23],-0.011
same,glycan array binding signal (z-score),[24],-0.35
same,glycan array binding signal (z-score),[25],-0.054
same,glycan array binding signal (z-score),[26],-0.611
same,glycan array binding signal (z-score),[27],-0.721
same,glycan array binding signal (z-score),[28],-0.438
same,glycan array binding signal (z-score),[29],-0.356
same,glycan array binding signal (z-score),[30],-0.384
same,glycan array binding signal (z-score),[31],0.248
same,glycan array binding signal (z-score),[32],-0.252
same,glycan array binding signal (z-score),[33],-0.068
same,glycan array binding signal (z-score),[34],0.682
same,glycan array binding signal (z-score),[35],-0.322
same,glycan array binding signal (z-score),[36],-0.391
same,glycan array binding signal (z-score),[37],0.026
same,glycan array binding signal (z-score),[38],-0.372
same,glycan array binding signal (z-score),[39],0.937
same,glycan array binding signal (z-score),[40],-0.15
same,glycan array binding signal (z-score),[41],0.436
same,glycan array binding signal (z-score),[42],-0.11
same,glycan array binding signal (z-score),[43],-0.324
same,glycan array binding signal (z-score),[44],0.636
same,glycan array binding signal (z-score),[45],-0.166
